Laboratory results published in patent US20120258108A1 (AbbVie / Abbott, published 2012).

T1: Recombinant Human VEGF 165 (human, UniProt P15692-4 27-191)
T1 sequence (looked up): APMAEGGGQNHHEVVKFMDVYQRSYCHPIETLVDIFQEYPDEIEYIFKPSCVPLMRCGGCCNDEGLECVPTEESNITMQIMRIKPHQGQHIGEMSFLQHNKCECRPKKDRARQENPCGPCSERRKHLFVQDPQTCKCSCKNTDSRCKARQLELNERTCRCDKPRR

B1: DVD1709 (bispecific antibody, human IgG1, kappa)
heavy: EVTLRESGPALVKPTQTLTLTCTASGYTFTKYWLGWIRQPPGKGLEWMGDIYPGYDYTHYNEKFKDRVTLSTDTSKSQAVLTMTNMDPVDTATYYCARSDGSSTYWGQGTTVTVSSASTKGPEVQLVQSGTEVKKPGESLKISCKASGFTFDDYAMHWVRQMPGKGLEWVSAITWNSGHIDYADSVEGQFTISRDNSFNTLFLQWSSLKASDTAMYYCAKVSYLSTASSLDYWGQGTMVTVSS[no letters for human IgG1 constant region]
light: DVVMTQSPDSLAVSLGERATINCTSSQNIVHSNGNTYLEWYQQKPGQSPKLLIYKVSNRFSGVPDRFSGSGSGTDFTLTISSLQAEDVAVYYCFQVSHVPYTFGGGTKVEIKRTVAAPEIVMTQSPATLSVSPGERATLSCRASQGIRNYLAWYQQKPGQAPRLLIYAASTLQSDVPARFSGSGSGTEFTLTISSLQSEDFAVYYCQRYNRAPYTFGQGTRLEIKRTVAAPSVFIFPPSDEQLKSGTASVVCLLNNFYPREAKVQWKVDNALQSGNSQESVTEQDSKDSTYSLSSTLTLSKADYEKHKVYACEVTHQGLSSPVTKSFNRGEC
notes: DVD-Ig; also called PGE2 (AB057) / TNF (AB058) DVD-Ig
B2: DVD1717 (bispecific antibody, human IgG1, kappa)
heavy: EVQLVESGGGLVQPGGSLRLSCAVSGGSISSSSYYWGWIRQAPGKGLEWIGDIYYTGSTYYNPSLKSRVTISVDTSKNTFYLQMNSLRAEDTAVYYCARQALAMGGGSDKWGQGTLVTVSSASTKGPEVQLVESGGGLVQPGGSLRLSCAASGYTFTNYGMNWVRQAPGKGLEWVGWINTYTGEPTYAADFKRRFTFSLDTSKSTAYLQMNSLRAEDTAVYYCAKYPHYYGSSHWYFDVWGQGTLVTVSS[no letters for human IgG1 constant region]
light: DYQLTQSPSSLSASVGDRVTITCSGQRLGDKYASWYQQKPGKSPKLVIYEDSKRPSGIPSRFSGSNSGDDATLTISSLQPEDFATYYCQAWDRDTGVFGQGTKVEIKRTVAAPDIQMTQSPSSLSASVGDRVTITCSASQDISNYLNWYQQKPGKAPKVLIYFTSSLHSGVPSRFSGSGSGTDFTLTISSLQPEDFATYYCQQYSTVPWTFGQGTKVEIKRTVAAPSVFIFPPSDEQLKSGTASVVCLLNNFYPREAKVQWKVDNALQSGNSQESVTEQDSKDSTYSLSSTLTLSKADYEKHKVYACEVTHQGLSSPVTKSFNRGEC
notes: DVD-Ig

Tests used:
[1] = target: T2, Recombinant Human TNFα/TNFSF1A (human, UniProt P01375 part only); experiment: cell-based or functional assay
[2] = target: T2, Recombinant Human TNFα/TNFSF1A; experiment: SPR (BIACORE)
Protocol: (§1) The BIACORE assay (Biacore, Inc, Piscataway, N.J.) determines the affinity of antibodies or DVD-Ig with kinetic measurements of on-rate and off-rate constants. Binding of antibodies or DVD-Ig to a target antigen (for example, a purified recombinant target antigen) was determined by surface plasmon resonance-based measurements with a Biacore® 1000 or 3000 instrument (Biacore® AB, Uppsala, Sweden) using running HBS-EP (10 mM HEPES [pH 7.4], 150 mM NaCl, 3 mM EDTA, and 0.005% surfactant P20) at 25° C. All chemicals were obtained from Biacore® AB (Uppsala, Sweden) or otherwise from a different source as described in the text. For example, approximately 5000 RU of goat anti-mouse IgG, (Fcγ), fragment specific polyclonal antibody (Pierce Biotechnology Inc, Rockford, Ill.) diluted in 10 mM sodium acetate (pH 4.5) is directly immobilized across a CM5 research grade biosensor chip using a standard amine coupling kit according to manufacturer's instructions and procedures at 25 μg/ml. Unreacted moieties on the biosensor surface are blocked with ethanolamine. Modified carboxymethyl dextran surface in flowcell 2 and 4 is used as a reaction surface. Unmodified carboxymethyl dextran without goat anti-mouse IgG in flow cell 1 and 3 is used as the reference surface. For kinetic analysis, rate equations derived from the 1:1 Langmuir binding model are fitted simultaneously to association and dissociation phases of all eight injections (using global fit analysis) with the use of Biaevaluation 4.0.1 software. Purified antibodies or DVD-Ig are diluted in HEPES-buffered saline for capture across goat anti-mouse IgG specific reaction surfaces. Antibodies or DVD-Ig to be captured as a ligand (25 μg/ml) are injected over reaction matrices at a flow rate of 5 μl/min. The association and dissociation rate constants, kₒₙ (M⁻¹ s⁻¹) and koff (s⁻¹) are determined under a continuous flow rate of 25 μl/min. Rate constants are derived by making kinetic binding measurements at different antigen concentrations ranging from 10-200 nM. The equilibrium dissociation constant (M) of the reaction between antibodies or DVD-Igs and the target antigen is then calculated from the kinetic rate constants by the following formula: KD=koff/kₒₙ. Binding is recorded as a function of time and kinetic rate constants are calculated.

[3] = target: T1, Recombinant Human VEGF 165; experiment: SPR (BIACORE)
Protocol: as §1

Recombinant Human DLL4 = Recombinant Human DLL4 (human, UniProt Q9NR61 part only); experiment: SPR (BIACORE)
Protocol: as §1

T2 sequence (P01375 77-233 limits assumed): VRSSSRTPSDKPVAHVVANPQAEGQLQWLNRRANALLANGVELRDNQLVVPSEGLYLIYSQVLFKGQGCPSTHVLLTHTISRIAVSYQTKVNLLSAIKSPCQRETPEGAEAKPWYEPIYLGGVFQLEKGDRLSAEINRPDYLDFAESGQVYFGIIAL
Sequence of Recombinant Human DLL4 (Q9NR61 27-524 limits assumed): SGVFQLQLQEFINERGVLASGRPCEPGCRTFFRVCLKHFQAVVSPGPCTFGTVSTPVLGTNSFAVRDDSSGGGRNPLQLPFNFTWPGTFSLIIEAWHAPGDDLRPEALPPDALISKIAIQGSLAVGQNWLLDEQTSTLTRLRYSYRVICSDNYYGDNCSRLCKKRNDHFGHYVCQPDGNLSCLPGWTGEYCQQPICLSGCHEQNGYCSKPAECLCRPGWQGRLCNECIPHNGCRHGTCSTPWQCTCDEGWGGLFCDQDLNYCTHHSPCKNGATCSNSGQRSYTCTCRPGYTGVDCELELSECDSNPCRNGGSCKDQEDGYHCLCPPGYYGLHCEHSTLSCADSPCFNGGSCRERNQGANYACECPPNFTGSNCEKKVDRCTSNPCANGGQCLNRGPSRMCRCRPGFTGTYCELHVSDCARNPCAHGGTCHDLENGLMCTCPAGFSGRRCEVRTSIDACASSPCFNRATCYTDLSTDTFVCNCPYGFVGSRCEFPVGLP

Row | Binder | C-terminal VD TNFα Neutralization Assay EC50 nM (L929 cells) [1] [nM] | Kd [2] [nM] | koff [2] [s⁻¹] | kon [2] [M⁻¹ s⁻¹] | Kd [3] [nM] | koff [3] [s⁻¹] | kon [3] [M⁻¹ s⁻¹] | Kd (Recombinant Human DLL4) [nM] | koff (Recombinant Human DLL4) [s⁻¹] | kon (Recombinant Human DLL4) [M⁻¹ s⁻¹]
1 | B1 | > 500 | 22 | 0.00049 | 22000 |  |  |  |  |  | 
2 | B2 |  |  |  |  | 0.023 | 2.1e-06 | 91000 | 2.6 | 0.00015 | 56000
